These are yes or no findings as the source states them, for the method shown. For part of these data: Binding seen in cells or lysates may run through a third protein. Some entries that bind do so weakly or less than the wild type. For part of these data: Tags and fused reporters may be left off the sequences shown.
Experiments:
GST-tagged ENP1 (human) = GST-tagged ENP1 (human) (UniProt Q13895); assay: pull-down; 50 ng GST-tagged bait with equal amounts of His-tagged or untagged prey; 50 mM Tris-HCl pH 8.0, 10% glycerol, 300 mM NaCl, 5 mM MgCl2, 0.1% Tween20; 1 h at 4°C; glutathione sepharose; western blotting; both purified
FLAG-tagged U3-55K = biological target: T1, FLAG-tagged U3-55K (UniProt O43818); assay: co-IP; whole cell extracts (sonication) of HEK293 cells expressing the FLAG-tagged bait at endogenous levels; anti-FLAG antibody coupled to protein G sepharose, non-antibody-bound beads as control; eluates western blotted for endogenous proteins
T1 sequence: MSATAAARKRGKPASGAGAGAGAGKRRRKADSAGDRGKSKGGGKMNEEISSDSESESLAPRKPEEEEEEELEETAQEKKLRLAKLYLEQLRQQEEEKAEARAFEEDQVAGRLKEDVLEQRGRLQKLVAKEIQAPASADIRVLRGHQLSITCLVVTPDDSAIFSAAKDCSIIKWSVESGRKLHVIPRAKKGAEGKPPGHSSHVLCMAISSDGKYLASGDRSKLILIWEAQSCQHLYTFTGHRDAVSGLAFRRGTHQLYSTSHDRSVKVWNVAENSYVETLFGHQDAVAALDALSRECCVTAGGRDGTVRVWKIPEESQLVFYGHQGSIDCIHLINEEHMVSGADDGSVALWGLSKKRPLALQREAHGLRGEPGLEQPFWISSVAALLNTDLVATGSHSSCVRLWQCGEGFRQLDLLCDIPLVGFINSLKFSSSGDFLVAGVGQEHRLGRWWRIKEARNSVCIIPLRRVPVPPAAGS

Protein sequences, listed by entry. Tags and fused reporters are not part of them.
UniProt Q13895: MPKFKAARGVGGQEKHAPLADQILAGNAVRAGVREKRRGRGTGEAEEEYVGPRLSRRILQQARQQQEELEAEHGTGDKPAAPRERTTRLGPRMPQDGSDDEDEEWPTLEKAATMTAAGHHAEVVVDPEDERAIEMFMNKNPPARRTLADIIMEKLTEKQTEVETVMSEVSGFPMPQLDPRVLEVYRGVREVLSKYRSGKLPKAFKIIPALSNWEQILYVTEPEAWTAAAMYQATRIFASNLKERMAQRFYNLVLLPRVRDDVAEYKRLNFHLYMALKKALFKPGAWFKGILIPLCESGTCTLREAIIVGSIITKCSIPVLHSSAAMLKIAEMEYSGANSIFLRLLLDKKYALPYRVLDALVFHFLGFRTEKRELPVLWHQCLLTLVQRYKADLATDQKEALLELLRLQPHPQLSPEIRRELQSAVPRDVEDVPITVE
UniProt Q9UNQ2: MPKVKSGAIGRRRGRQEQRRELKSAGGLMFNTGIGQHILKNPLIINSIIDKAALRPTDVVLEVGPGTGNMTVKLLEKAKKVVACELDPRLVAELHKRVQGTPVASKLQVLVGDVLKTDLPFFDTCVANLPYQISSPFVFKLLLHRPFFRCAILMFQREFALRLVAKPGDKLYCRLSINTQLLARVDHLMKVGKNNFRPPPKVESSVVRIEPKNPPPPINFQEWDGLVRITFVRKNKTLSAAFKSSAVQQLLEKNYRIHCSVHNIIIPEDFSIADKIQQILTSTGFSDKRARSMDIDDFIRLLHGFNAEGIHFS
UniProt Q9NRX1: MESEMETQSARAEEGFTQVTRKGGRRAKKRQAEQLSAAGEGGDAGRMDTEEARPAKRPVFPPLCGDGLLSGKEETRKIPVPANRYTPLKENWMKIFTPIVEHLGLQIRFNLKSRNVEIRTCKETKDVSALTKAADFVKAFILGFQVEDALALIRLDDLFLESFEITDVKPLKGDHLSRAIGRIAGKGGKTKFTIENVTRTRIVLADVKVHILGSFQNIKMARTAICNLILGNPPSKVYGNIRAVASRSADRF
UniProt Q9BVS4: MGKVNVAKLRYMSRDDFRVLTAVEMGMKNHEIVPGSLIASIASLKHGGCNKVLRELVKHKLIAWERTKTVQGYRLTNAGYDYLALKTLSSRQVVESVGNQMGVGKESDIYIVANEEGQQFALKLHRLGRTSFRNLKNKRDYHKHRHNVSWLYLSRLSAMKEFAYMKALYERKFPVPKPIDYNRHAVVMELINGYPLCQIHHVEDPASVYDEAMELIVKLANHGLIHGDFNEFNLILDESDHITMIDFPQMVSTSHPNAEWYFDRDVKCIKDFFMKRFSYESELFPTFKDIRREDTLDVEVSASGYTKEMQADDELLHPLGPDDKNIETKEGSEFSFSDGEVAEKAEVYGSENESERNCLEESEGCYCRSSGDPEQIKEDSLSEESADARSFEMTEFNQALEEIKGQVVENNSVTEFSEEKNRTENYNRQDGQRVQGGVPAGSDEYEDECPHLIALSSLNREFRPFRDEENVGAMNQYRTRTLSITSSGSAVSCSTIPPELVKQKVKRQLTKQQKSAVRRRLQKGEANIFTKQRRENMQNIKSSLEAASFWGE
UniProt O43143: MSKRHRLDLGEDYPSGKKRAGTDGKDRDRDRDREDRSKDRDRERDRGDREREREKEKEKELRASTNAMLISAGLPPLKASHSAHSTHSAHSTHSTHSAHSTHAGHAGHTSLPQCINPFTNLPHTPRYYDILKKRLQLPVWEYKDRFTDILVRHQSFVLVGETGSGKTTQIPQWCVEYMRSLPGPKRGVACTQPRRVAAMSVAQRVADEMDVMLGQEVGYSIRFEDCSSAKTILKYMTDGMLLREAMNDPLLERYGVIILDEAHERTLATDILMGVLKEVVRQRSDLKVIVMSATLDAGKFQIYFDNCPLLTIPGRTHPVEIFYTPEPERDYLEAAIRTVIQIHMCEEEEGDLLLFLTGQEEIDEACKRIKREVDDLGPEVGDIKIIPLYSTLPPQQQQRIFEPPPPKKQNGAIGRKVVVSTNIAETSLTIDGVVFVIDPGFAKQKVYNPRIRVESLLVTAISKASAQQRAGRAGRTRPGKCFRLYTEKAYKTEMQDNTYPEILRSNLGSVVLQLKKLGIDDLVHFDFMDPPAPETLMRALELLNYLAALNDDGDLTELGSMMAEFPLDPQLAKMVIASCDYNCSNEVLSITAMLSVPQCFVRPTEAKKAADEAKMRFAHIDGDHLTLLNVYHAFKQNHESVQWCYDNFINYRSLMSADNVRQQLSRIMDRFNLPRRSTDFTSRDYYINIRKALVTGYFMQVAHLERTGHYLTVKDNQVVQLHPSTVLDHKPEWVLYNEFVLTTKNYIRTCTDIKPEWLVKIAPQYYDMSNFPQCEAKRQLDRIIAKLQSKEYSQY

FLAG-tagged DIM1 (human) = FLAG-tagged DIM1 (human) (UniProt Q9UNQ2); assay: as above
FLAG-tagged PNO1 (human) = FLAG-tagged PNO1 (human) (UniProt Q9NRX1); assay: as above
FLAG-tagged NOB1 (human) = biological target: T2, FLAG-tagged NOB1 (human) (UniProt Q9ULX3); assay: as above
T2 sequence: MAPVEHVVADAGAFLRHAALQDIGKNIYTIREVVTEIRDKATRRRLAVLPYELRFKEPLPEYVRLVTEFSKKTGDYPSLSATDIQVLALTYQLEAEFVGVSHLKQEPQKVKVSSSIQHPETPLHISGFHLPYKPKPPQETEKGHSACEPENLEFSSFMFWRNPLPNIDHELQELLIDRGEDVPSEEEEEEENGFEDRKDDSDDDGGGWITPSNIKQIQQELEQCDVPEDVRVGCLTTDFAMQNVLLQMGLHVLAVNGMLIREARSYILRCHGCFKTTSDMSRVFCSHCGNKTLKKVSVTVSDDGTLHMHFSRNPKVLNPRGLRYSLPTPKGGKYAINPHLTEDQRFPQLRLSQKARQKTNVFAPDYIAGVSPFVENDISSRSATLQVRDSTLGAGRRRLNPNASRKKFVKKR

GST-tagged RIO2 (human) = GST-tagged RIO2 (human) (UniProt Q9BVS4); assay: pull-down; 50 ng GST-tagged bait with equal amounts of His-tagged or untagged prey; 50 mM Tris-HCl pH 8.0, 10% glycerol, 300 mM NaCl, 5 mM MgCl2, 0.1% Tween20; 1 h at 4°C; glutathione sepharose; western blotting; both purified

For “His-tagged DIM1 (from UniProt Q9UNQ2 1-313)”, the binding (GST-tagged ENP1 (human)) was “no binding”.
For “endogenous PNO1 (from UniProt Q9NRX1 1-252)”, the binding (FLAG-tagged U3-55K) was “binds” and the binding (FLAG-tagged DIM1 (human)) was “binds weakly”.
With “endogenous PRP43 (from UniProt O43143 1-795)” the binding (FLAG-tagged PNO1 (human)) was “no binding” and the binding (FLAG-tagged NOB1 (human)) was “no binding”.
With “endogenous RIO2 (from UniProt Q9BVS4 1-552)” the binding (FLAG-tagged PNO1 (human)) was “binds”, the binding (FLAG-tagged NOB1 (human)) was “binds” and the binding (FLAG-tagged DIM1 (human)) was “binds weakly”.
In the case of “untagged PNO1 (from UniProt Q9NRX1 1-252)”, the binding (GST-tagged RIO2 (human)) is reported as “binds weakly”.
